Experimental data from PubChem BioAssay AID504466 (National Center for Advancing Translational Sciences (NCATS), 2011).
About 4,200 (1.3%) of roughly 330,000 compounds were called active. Inconclusive results, whose numbers are uncertain, are shown with a selection of clear calls. Calls follow the shape of the dose curve; as a rule, active = well fitted activation curve with a large enough effect; inconclusive = small, poorly fitted or top-dose-only effect; inactive = no such curve, though single readings can be large or run the other way. Potencies of inconclusive entries are doubtful fits and often do not repeat.

experiment: qHTS screen for small molecules that induce genotoxicity in human embryonic kidney (HEK293T) cells expressing luciferase-tagged ELG1; conditions: HEK293T ELG1-luciferase reporter, luminescence, 16 h; series mostly up to 46 µM; activity change, positive = activation: at the top concentration; also: nearly all actives have a fitted effect of over 60% in size; as to activity change, positive = activation: % of control where 0% means no effect
In short: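 After overnight (16 hr) compound treatment at 37 °C, ELG1-luciferase HEK293T cells were lysed with ONE-Glo; luminescence quantified 30 min later at room temperature.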
Potency is read from the fitted curve at half-maximal effect; tags tell the direction and shape of the fitted curve.

Structure (SMILES) | activity change, positive = activation | Potency
CCCC1(C(=O)OCC)NC(c2ccc(OC)cc2OC)C2C(=O)N(c3ccccc3)C(=O)C21 (stereo not drawn) | inactive: -3.94% | –
CCOc1ccc(NC(=O)c2oc3ccccc3c2NC(=O)CC)cc1 | – | inconclusive: 23.1 µM [activator, partial curve, poor fit]
C/C(CC(=O)Nc1ccc(F)cc1)=N\NC(=O)c1ccccn1 | – | inconclusive: 20.6 µM [activator, partial curve, poor fit]
COc1cc(NC(=O)C(C)C)ccc1NC(=O)c1cc2ccccc2o1 | – | inconclusive: 2.91 µM [activator, full curve]
Cc1cc(C)cc(C(=O)NCC(=O)OCC(=O)NC2CC2)c1 | inactive: -1.56% | –
CN(C)c1ccc(C(=O)NC2CCCc3ccccc32)cc1 (stereo not drawn) | – | inconclusive: 18.3 µM [activator, partial curve, poor fit]
CC(=O)Oc1ccc2occ(C(=O)c3cccs3)c2c1 | – | inconclusive: 9.2 µM [activator, partial curve]
Cc1ccsc1CN(C)C(=O)CCc1nnc(COc2ccccc2)o1 | – | inconclusive: 16.4 µM [activator, partial curve, poor fit]
COC(=O)c1ccccc1S(=O)(=O)NNC(=O)C12CC3CC(CC(C3)C1)C2 | inactive: 2.16% | –
COc1ccc(/C=C/c2nc3cc(-c4ccccc4)ccc3o2)cc1O | inactive: -0.833% | –
CCOc1ccc2nc3sc(C(=O)N4CCN(C)CC4)c(N)c3cc2c1 | – | inconclusive: 12.6 µM [activator, partial curve]
Cc1cccc(-n2ncc3c(NCCCn4ccnc4)ncnc32)c1 | – | inconclusive: 20.6 µM [activator, partial curve, poor fit]
Cc1ccc(NC(=O)CSc2ccc3nnc(CCNC(=O)c4ccccc4)n3n2)c(C)c1 | inactive: 0.998% | –
Nc1ccccc1SC/C=C/CSc1ccccc1N | inactive: 11.6% | –
CCN1CCN(c2ccc(S(=O)(=O)N3CCOCC3)cc2NC(=O)C(C)Oc2ccc(Cl)cc2)CC1 (stereo not drawn) | inactive: -4.09% | –
Cc1cccc(C(=O)n2c(=S)nc3ccccn32)c1 | – | inconclusive: 0.891 µM [activator, full curve, poor fit]
CCOC(=O)C1CCN(C(=O)c2cc(COc3ccc(F)cc3F)on2)CC1 | – | active: 20.6 µM
Cc1cc(C(=O)CCC(=O)NCC(=O)Nc2c(C)cccc2C)c(C)s1 | inactive: 2.27% | –
Nc1nc2ccccc2n1/N=C/c1ccc(-c2ccccc2)o1 | – | inconclusive: 9.2 µM [activator, partial curve, poor fit]
COc1ccc(O)c(/C=N/Nc2nc3ccccc3[nH]2)c1 | – | inconclusive: 13 µM [activator, partial curve, poor fit]
COc1ccccc1NC(CC(=O)c1ccccc1)C(=O)OCC(=O)c1ccc(C)c(C)c1 (stereo not drawn) | – | active: 2.06 µM
CC(=O)Nc1ccc(S(=O)(=O)N(CC(=O)Nc2cc(C)on2)Cc2ccc(F)cc2)cc1 | inactive: -3.34% | –
COc1ccc(CNC(=S)N/N=C(/C)c2ccccc2)cc1 | – | active: 18.3 µM
CCN(CC)c1ccc(/C=N/NC(=O)c2ccco2)c(O)c1 | – | active: 23.1 µM

Structure (SMILES) | activity change, positive = activation | Potency
Cc1ccc(C(=O)N2CCOCC2)cc1S(=O)(=O)N1CCCC1 | inactive: 9.38% | –
CC1CCCCN1CCNC(=O)CN1C(=O)CSc2ccc(S(=O)(=O)N3CCCCC3)cc21 (stereo not drawn) | inactive: 0.612% | –
CC(C)NC(=O)C(=O)Nc1cc2c3c(c1)C(C)C(=O)N3CCC2 (stereo not drawn) | – | inconclusive: 20.6 µM [activator, partial curve, poor fit]
O=C1CCn2nc(-c3ccc(Cl)cc3)cc2N1 | – | inconclusive: 14.6 µM [activator, partial curve]
FC(F)(F)c1ccc(-c2nnc(-c3cccnc3)o2)cc1 | – | inconclusive: 20.6 µM [activator, partial curve, poor fit]
CCOCC(=O)Nc1nnc(C2CCCCC2)s1 | – | inconclusive: 16.4 µM [activator, partial curve, poor fit]
Cc1ccc(C(=O)Nc2ccc3c(c2)CCC3)cc1S(=O)(=O)N1CCOCC1 | – | inconclusive: 2.31 µM [activator, partial curve, poor fit]
O=C(COC(=O)c1ccccc1[N+](=O)[O-])c1ccc2c(c1)OCO2 | – | inconclusive: 13 µM [activator, partial curve]
Cc1ccc(Sc2ncccc2NC(=O)c2ccccc2Cl)cc1 | inactive: 2.01% | –
CN(C)C(=O)c1c(NC(=O)c2ccco2)sc2c1CCCCC2 | inactive: 3.1% | –
O=C(NNc1ccc([N+](=O)[O-])cc1)Nc1ccccc1 | inactive: 3.2% | –
COc1ccccc1NS(=O)(=O)c1ccc2oc(N)nc2c1 | inactive: 0% | –
C#CCn1cc(/C=C2\NC(=O)NC2=O)c2ccccc21 | – | inconclusive: 20.6 µM [activator, single point]
Nc1nc(Nc2ccccc2)nc2ccccc12 | – | inconclusive: 1.84 µM [activator, full curve]
CCn1c(CN2CCCCC2)nc2cc(S(=O)(=O)N3CCCCC3)ccc21 | inactive: -2.88% | –
Cc1ccc(C(=O)CSc2nnc(CNc3ccc(C)cc3C)o2)cc1 | – | inconclusive: 25.9 µM [activator, partial curve, poor fit]
COCCn1c(C)cc(/C=C2/NC(=O)N(c3cccc(Cl)c3)C2=O)c1C | – | inconclusive: 16.4 µM [activator, partial curve, poor fit]
N/C(=N\OC(=O)/C=C/c1ccccc1Cl)c1cccnc1 | – | active: 20.6 µM
O=C(O)c1cccc(N/N=C/c2cc(Br)cc(Br)c2O)c1 | – | inconclusive: 14.6 µM [activator, partial curve, poor fit]
Cc1ccc(Nc2c(-c3ccc(N4CCOCC4)cc3)nc3cnccn23)cc1 | – | inconclusive: 18.3 µM [activator, partial curve, poor fit]
COc1ccc(/C=C/CN2CCCC(CO)(Cc3cccc(Cl)c3)C2)cc1 (stereo not drawn) | inactive: -9.54% | –
O=C(O)c1ccc2c(=O)[nH]c(CCl)nc2c1 | inactive: 1.77% | –
CC1CCN(C(=O)CNC(=O)c2ccc(Br)o2)CC1 | – | inconclusive: 16.4 µM [activator, partial curve, poor fit]
Cc1ccccc1-c1cc(=O)c2c(O)cccc2o1 | inactive: 0.0085% | –
